According to the supplement of paper PMC12355420:
Where a name gives a salt, the structure may show the parent alone. This is one part of the list. Cut-off read from the data, not from the text of the source: active = 0.5 or less and inactive = the rest. Single values are uncertain, as repeats are few or missing.

Assays:
Details in all cases: 50 µM; 24 h
[1] = test system: HeLa VPS33A reporter cells; assay: relative cell viability (CellMask signal) vs DMSO (fraction of DMSO); higher = less cytotoxic;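 note: primary screen of an FDA-approved drug library in HeLa reporter cells in 96-well format, CellMask signal normalized to DMSO-treated wells set as 1, under 0.5 deemed highly cytotoxic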
[2] = test system: HeLa VPS33A R498W KI + HA-SDC1-FLAG; assay: relative GAG core protein HA-SDC1 amount per cell number vs DMSO (fraction of DMSO); higher = more SDC1 (GAG core protein);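 note: HA-SDC1 level read out by In-Cell Western staining with an anti-HA antibody against the N-terminal tag, screening FDA-approved library drugs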
[3] = test system: HeLa VPS33A KO + NLuc-VPS33A R498W; assay: relative mutant VPS33A R498W amount (NanoLuc luminescence) vs DMSO (fraction of DMSO); HeLa model of a glycosaminoglycan (GAG) storage disease; KI is knock-in and KO knock-out; SDC1 is syndecan 1; higher = higher mutant VPS33A level;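 note: screen of an FDA-approved drug library, NanoLuc luminescence read after lysing the treated cells, taken as a measure of mutant VPS33A protein stability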

Structure (SMILES) | relative cell viability [1] | relative GAG core protein HA-SDC1 amount per cell number [2] | relative mutant VPS33A R498W amount [3]
COc1ccc2cc3[n+](cc2c1OC)CCc1cc2c(cc1-3)OCO2 [Berberine] | 1.02 | active: 0.399 | 0.886
CCCOC(=O)c1ccc(O)cc1 [Propylparaben] | 1.05 | inactive: 0.825 | 0.891
COCCc1ccc(OCC(O)CNC(C)C)cc1 (configuration not stated) [Metoprolol Tartrate] | 1.36 | inactive: 0.626 | 1.24
CC(C)(C)C#Cc1cc(N(C(=O)[C@H]2CC[C@H](C)CC2)[C@H]2CC[C@H](O)CC2)c(C(=O)O)s1 [VX-222 (VCH-222, Lomibuvir)] | 0.526 | inactive: 0.661 | 1.34
CCN(CC)CCCC(C)Nc1ccnc2cc(Cl)ccc12 (configuration not stated) [Chloroquine diphosphate] | 1.19 | inactive: 1.35 | 0.826
N=C(N)NS(=O)(=O)c1ccc(N)cc1 [Sulfaguanidine] | 1.05 | inactive: 0.67 | 0.997
[I-].[K+] [Potassium Iodide] | 0.959 | inactive: 0.868 | 1.32
O=C(c1cc(Cc2n[nH]c(=O)c3ccccc23)ccc1F)N1CCN(C(=O)C2CC2)CC1 | 1.09 | inactive: 0.943 | 0.621
CCCCOc1ccc(OCCCN2CCOCC2)cc1 [Pramoxine HCl] | 0.862 | inactive: 0.786 | 1.54
NC(=O)Cc1cccc(C(=O)c2ccccc2)c1N [Nepafenac] | 1.16 | inactive: 1.14 | 1.25
C[C@@H](O)[C@H]1C(=O)N2C(C(=O)O)=C(S[C@@H]3CN[C@H](C(=O)N(C)C)C3)[C@H](C)[C@H]12 [Meropenem trihydrate] | 1.42 | inactive: 1.35 | 0.795
Cc1nc(=O)c2cc(CN(C)c3ccc(C(=O)N[C@@H](CCC(=O)O)C(=O)O)s3)ccc2[nH]1 [Raltitrexed] | 1.12 | inactive: 1.07 | 1.18
C#CCN[C@@H]1CCc2ccccc21 [Rasagiline Mesylate] | 0.931 | inactive: 1.23 | 1.21
CC=CC1=C(C(=O)O)N2C(=O)[C@@H](NC(=O)[C@H](N)c3ccc(O)cc3)[C@H]2SC1 [Cefprozil] | 1.02 | inactive: 1.06 | 1.13
